Test results as given in a compilation of properties of binary mixtures (doi:10.1016/j.fluid.2020.112621).
Some of these densities may be calculated back from excess volumes.

Assay: xn = mol fraction of the nth substance listed
Details: 101 kPa

CCCC[n+]1ccn(C)c1.COP(=O)([O-])OC + CC(=O)O.CC(=O)[O-].CC[NH+](CC)CCO
x2 = 0
Details	mass density [kg/m3]
278.15 K	1174.1
288.15 K	1166.8
293.15 K	1163.4
303.15 K	1157
308.15 K	1153.7
313.15 K	1150.1
318.15 K	1147.1
323.15 K	1143.6
328.15 K	1140.3
333.15 K	1137.4
338.15 K	1134.2
343.15 K	1130.7
348.15 K	1127.5
363.15 K	1118
368.15 K	1114.8
373.15 K	1111.7

CCCC[n+]1ccn(C)c1.O=S(=O)([N-]S(=O)(=O)C(F)(F)F)C(F)(F)F + CC(=O)[O-].CCCC[NH2+]CCO
x2 = 0
Details	mass density [kg/m3]
283.15 K	1451.3
298.15 K	1437
303.15 K	1432.2
308.15 K	1427.4
313.15 K	1422.7
323.15 K	1413.2
328.15 K	1408.4
333.15 K	1403.7
338.15 K	1399
343.15 K	1394.3
348.15 K	1389.6
353.15 K	1384.9
358.15 K	1380.3
363.15 K	1375.6
368.15 K	1370.9
373.15 K	1366.3

CCCC[n+]1ccn(C)c1.COP(=O)([O-])OC + CCC(=O)O.CCC(=O)[O-].CC[NH+](CC)CCO
x2 = 0
Details	mass density [kg/m3]
278.15 K	1174.1
288.15 K	1166.8
293.15 K	1163.4
298.15 K	1160.1
303.15 K	1157
308.15 K	1153.7
313.15 K	1150.1
318.15 K	1147.1
323.15 K	1143.6
333.15 K	1137.4
338.15 K	1134.2
348.15 K	1127.5
353.15 K	1124.3
358.15 K	1121.1
363.15 K	1118
368.15 K	1114.8

CCCC[n+]1ccn(C)c1.COP(=O)([O-])OC + CCCC(=O)[O-].CC[NH+](CC)CCO
x2 = 0
Details	mass density [kg/m3]
278.15 K	1174.1
283.15 K	1170.4
288.15 K	1166.8
293.15 K	1163.4
303.15 K	1157
308.15 K	1153.7
313.15 K	1150.1
323.15 K	1143.6
333.15 K	1137.4
338.15 K	1134.2
343.15 K	1130.7
353.15 K	1124.3
358.15 K	1121.1
363.15 K	1118
368.15 K	1114.8

CCCC[n+]1ccn(C)c1.COP(=O)([O-])OC + CCCCC(=O)[O-].CC[NH+](CC)CCO
x2 = 0
Details	mass density [kg/m3]
278.15 K	1174.1
283.15 K	1170.4
288.15 K	1166.8
293.15 K	1163.4
298.15 K	1160.1
308.15 K	1153.7
313.15 K	1150.1
318.15 K	1147.1
333.15 K	1137.4
338.15 K	1134.2
343.15 K	1130.7
353.15 K	1124.3
363.15 K	1118

CCCC[n+]1ccn(C)c1.COP(=O)([O-])OC + CCCCCC(=O)O.CCCCCC(=O)[O-].CC[NH+](CC)CCO
x2 = 0
Details	mass density [kg/m3]
278.15 K	1174.1
283.15 K	1170.4
288.15 K	1166.8
293.15 K	1163.4
308.15 K	1153.7
313.15 K	1150.1
323.15 K	1143.6
328.15 K	1140.3
338.15 K	1134.2
343.15 K	1130.7
348.15 K	1127.5
353.15 K	1124.3
368.15 K	1114.8
373.15 K	1111.7

CC(=O)O.CC(=O)[O-].CC[NH+](CC)CCO + CCCC[n+]1ccn(C)c1.COP(=O)([O-])OC
mass density [kg/m3]
Details	x1 = 0.0748	x1 = 0.3316	x1 = 0.4263	x1 = 0.5275	x1 = 0.6343	x1 = 0.7493	x1 = 0.8567	x1 = 1
278.15 K	1162.5	–	1118.5	–	1102.2	1092.9	1081.1	1068.4
283.15 K	1158.8	1123.1	1114.5	1106.7	1098.2	–	1077	1064.3
288.15 K	1155.2	1119.2	1110.5	–	1094.2	1085.2	1073	1060.4
293.15 K	–	1115.3	1106.5	1098.6	1090.2	–	1069.1	1056.7
298.15 K	1148.3	1111.4	1102.5	–	–	1077.5	–	1052.6
303.15 K	–	1107.6	1098.6	1090.7	1082.4	1073.6	1061	–
308.15 K	1141.5	–	1094.7	1086.7	1078.5	–	1056.9	1044.6
313.15 K	1138.3	1100.1	1090.7	–	–	1065.8	1052.9	1040.6
318.15 K	1134.9	1096.4	1086.8	1078.8	1070.6	1061.8	–	1036.6
323.15 K	1131.3	1092.6	1083	–	–	1057.8	–	1032.6
328.15 K	–	1088.8	–	1070.8	1062.5	–	1040.7	1028.5
333.15 K	1124.6	1085.1	1075.3	1066.7	–	–	1036.6	1024.5
338.15 K	–	1081.3	1071.3	1062.7	1054.4	1045.7	1032.5	1020.4
343.15 K	1118.2	1077.6	1067.4	1058.6	1050.3	–	1028.4	1016.3
348.15 K	1114.6	1073.8	1063.5	1054.6	–	1037.6	1024.3	–
353.15 K	1111.3	1070.1	1059.5	1050.5	1042.1	1033.4	1020.1	1007.9
358.15 K	1108.1	1066.3	1055.6	–	1038	1029.3	–	–
363.15 K	1104.8	1062.6	1051.7	1042.4	1033.8	1025.1	1011.6	–
368.15 K	1101.5	1058.9	1047.8	–	–	1020.9	1007.4	995.1
373.15 K	1098.2	1055.2	1043.9	1034.3	1025.5	1016.7	1003	990.7

CCCCCC(=O)O.CCCCCC(=O)[O-].CC[NH+](CC)CCO + CCCC[n+]1ccn(C)c1.COP(=O)([O-])OC
mass density [kg/m3]
Details	x1 = 0.0684	x1 = 0.1429	x1 = 0.2213	x1 = 0.3088	x1 = 0.3966	x1 = 0.4995	x1 = 0.6088	x1 = 0.7258	x1 = 0.8535	x1 = 1
278.15 K	1150.3	1126.1	–	1082.3	1063.3	1045.4	–	1010.8	993.1	975
283.15 K	–	1122.5	1100	1078.4	1059.4	–	1024.2	–	989.6	971.4
288.15 K	1143.3	1118.9	–	–	1055.6	1037.8	1020.4	1003.4	986	–
293.15 K	1139.8	1115.2	1092.6	1070.9	1051.8	–	1016.7	999.7	–	964.3
298.15 K	1136.3	1111.6	–	–	1048.1	1030.3	1012.9	996.3	978.8	960.8
303.15 K	1132.8	1108.1	–	1063.5	1044.3	1026.5	–	992.6	975.1	–
308.15 K	1129.4	–	1081.8	1059.8	1040.5	1022.7	1005.4	988.9	971.5	953.6
313.15 K	–	1101.2	1078.3	–	1036.7	1018.9	1001.6	985.2	967.8	950
318.15 K	1122.7	1097.8	1074.7	1052.5	–	1015.2	998.1	981.4	–	946.4
323.15 K	1119.4	1094.4	1071.2	1048.9	–	1011.4	994.3	977.7	960.6	942.7
328.15 K	1116	1090.9	1067.7	1045.2	1025.3	–	990.4	973.9	956.9	–
333.15 K	1112.7	1087.5	1064.1	1041.5	1021.5	1003.8	986.6	970.1	953.2	935.4
338.15 K	–	1084.1	–	1037.9	1017.7	1000	982.8	966.4	949.4	–
343.15 K	–	1080.7	–	–	1013.9	996.5	978.9	962.6	945.7	928
348.15 K	1102.7	1077.3	1053.6	1030.7	1010.2	992.6	975.1	958.7	941.9	–
353.15 K	1099.3	1073.9	–	1027	1006.4	–	971.2	–	938.1	–
358.15 K	1096	1070.5	–	1023.4	1002.7	985	967.3	951.1	934.3	–
363.15 K	1092.7	1067.1	1043.1	1019.8	999.1	981.2	963.5	947.2	930.4	912.8
368.15 K	1089.3	1063.7	1039.6	1016.2	–	977.4	959.6	943.3	926.5	908.9
373.15 K	1086	1060.4	–	1012.6	993.1	973.6	955.7	939.4	922.6	904.9
